# In PubChem BioAssay (NCATS):
# Values joined by “and” are separate entries in the source; they are usually repeats but may differ in a detail not shown here. Equal values may be shown once. The inconclusive results got no clear call from the source; some entries with a clear call stand among them for comparison. Where a call stands in place of a potency, no number is given. For some of these results: Potencies beside an inconclusive call are fits to weak or partial responses and may not hold up. Active and inactive are the calls of the source. Unless noted, the call rests on the fitted dose curve; in most records, active means well fitted curve in the direction sought with a large enough effect; inconclusive means small, poorly fitted or top-dose-only effect, or another doubt; inactive means no such curve, though single readings can be large; an effect the other way counts as inactive or inconclusive.
# What was measured:
# [1] = qHTS to identify inhibitors of the type 1 interferon - major histocompatibility complex class I in skeletal muscle: primary screen against the NCATS Mechanism Interrogation Plate v5.0 (MIPE) Libary (AID 1347411); details: iHSKM cells + IFN-b, HiBiT-tagged MHC-I luminescence, 24 h; series mostly up to 45.8 µM; further: nearly all actives have a fitted effect of over 65% in size
# Summary of the method: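 Immortalized human C25cl48 myoblasts with HiBit knocked into endogenous HLA-B*08:01 were stimulated with 4.0 ng/ml IFN-beta and exposed to compounds (11-point 1:3 titration, top 46 uM final) for 24 hrs at 37 C; HiBiT lytic luminescence measured.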
# [2] = Primary qHTS for inhibitors of nuclear receptor binding SET domain protein 2 (NSD2) in an isogenic RCH-ACV NSD2 p.E1099K mutant (9B) (AID 1645876); details: activity change, negative = viability loss: at 44.9 µM (top of the series) unless noted; further: nearly all actives have a fitted effect of over 70% in size; further: potency means the concentration at half of the fitted maximal effect
# [3] = Primary qHTS for inhibitors of nuclear receptor binding SET domain protein 2 (NSD2) in an RCH-ACV wild type WT cells (2C) (AID 1645877); details: activity change, negative = cell killing: at 44.9 µM (top of the series) unless noted; further: nearly all actives have a fitted effect of over 70% in size; further: potency means the concentration at half of the fitted maximal effect
# [4] = biological target: Glutathione peroxidase 1 (Homo sapiens) (UniProt P07203); assay: Primary qHTS Assay for Inhibitors of Recombinant Selenoprotein Glutathione Peroxidase 1 (GPX1) (AID 1845191); further: nearly all actives have a fitted effect of over 65% in size
# Summary of the method: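 10 nM GPX1 + cpd, 30 min RT; start w/ 1 mM GSH, 0.5 mM cumene hydroperoxide, 0.5 mM NADPH, 100 nM GR, 0.01% BSA; buffer 50 mM Tris-HCl pH 7.5, 2 mM EDTA, 150 mM NaCl; Fl 340/450, 0 & 15 min.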
# [5] = system: CAOV3; assay: Primary qHTS to identify gynecologic anti-cancer compounds using libraries of approved drugs and bioactive compounds (AID 1345084); details: Gynecologic cancer cell panel viability, ATPlite luminescence, 48 h; series mostly up to 57.5 µM; further: nearly all actives have a fitted effect of over 55% in size; further: potency means the concentration at half of the fitted maximal effect
# Summary of the method: (§1)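 Five-concentration response, 48 h; readout is ATP-driven luciferase luminescence.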
# [6] = system: HeLa; assay: as above; details: Gynecologic cancer cell panel viability, ATPlite luminescence, 48 h; series mostly up to 57.5 µM
# Summary of the method: as §1
# [7] = Primary fluorescence-based thiol-reactive (MSTI) qHTS assay for identification of artifact compounds. (AID 1845221);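 further: potency means the concentration at half of the fitted maximal effect; thiol-reactive compounds lower the probe fluorescence signal; nearly all actives have a fitted effect of over 65% in size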
# Summary of the method: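 In PBS pH 7.4 with 2% DMSO, each compound met 4 uM MSTI for one hour at ambient temperature, shielded from light, before fluorescence detection.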
# [8] = Primary redox qHTS assay for identification of artifact compounds. (AID 1845223); further: potency means the concentration at half of the fitted maximal effect
# Summary of the method: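 Amplex Red (25 uM) and HRP (250 mU/mL) in HBSS, with compounds for 15 min, then 250 uM DTT for 30 min, room temperature, dark. Fluorescence 525/598 nm read; normalized to DMSO and 10 uM DA3003; Hill fit.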
# [9] = system: OV90; assay: Primary qHTS to identify gynecologic anti-cancer compounds using libraries of approved drugs and bioactive compounds (AID 1345084); details: Gynecologic cancer cell panel viability, ATPlite luminescence, 48 h; series mostly up to 57.5 µM; further: nearly all actives have a fitted effect of over 55% in size; further: potency means the concentration at half of the fitted maximal effect
# Summary of the method: as §1
# [10] = system: PA-1; assay: as above; details: Gynecologic cancer cell panel viability, ATPlite luminescence, 48 h; series mostly up to 57.5 µM
# Summary of the method: as §1
# [11] = P-glycoprotein substrates identified in KB-8-5-11 adenocarcinoma cell line, qHTS therapeutic library screen (AID 1346987); details: activity change, negative = cytotoxicity: at 44.5 µM (top of the series); further: nearly all actives have a fitted effect of over 65% in size
# Summary of the method: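 KB-8-5-11: colchicine-selected sub-line of KB-3-1 over-expressing P-gp; assay medium lacked colchicine. 72 h drug exposure at 37 degree C, CellTiter-Glo.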
# [12] = system: Es-2; assay: Primary qHTS to identify gynecologic anti-cancer compounds using libraries of approved drugs and bioactive compounds (AID 1345084); details: Gynecologic cancer cell panel viability, ATPlite luminescence, 48 h; series mostly up to 57.5 µM; further: nearly all actives have a fitted effect of over 55% in size; further: potency means the concentration at half of the fitted maximal effect
# Summary of the method: as §1
# [13] = system: Hek293T; assay: as above; details: Gynecologic cancer cell panel viability, ATPlite luminescence, 48 h, control line for the selectivity index; series mostly up to 57.5 µM
# Summary of the method: as §1
# [14] = biological target: Luciferin 4-monooxygenase (Photinus pyralis) (UniProt P08659); assay: Primary firefly luciferase (FLuc) qHTS assay for identification of artifact compounds. (AID 1845220); further: nearly all actives have a fitted effect of over 60% in size
# Summary of the method: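 Compounds sat 15 min at room temperature with 10 uM luciferin and 10 uM ATP (pH 7.6 Tris acetate). Firefly luciferase (10 nM final) was then added, and luminescence was read 5 min later. Data normalized to no-enzyme and DMSO controls were Hill-fitted.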
# [15] = system: SKOV3; assay: Primary qHTS to identify gynecologic anti-cancer compounds using libraries of approved drugs and bioactive compounds (AID 1345084); details: Gynecologic cancer cell panel viability, ATPlite luminescence, 48 h; series mostly up to 57.5 µM; further: nearly all actives have a fitted effect of over 55% in size; further: potency means the concentration at half of the fitted maximal effect
# Summary of the method: as §1
# [16] = qHTS of pediatric cancer cell lines to identify multiple opportunities for drug repurposing: Primary screen for A673 cells (AID 1347092); details: A673 Ewing sarcoma viability, CellTiter-Glo ATP luminescence, 48 h; activity change, negative = cytotoxic: at 46 µM (top of the series); further: nearly all actives have a fitted effect of over 45% in size
# Summary of the method: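 Luminescence from CellTiter-Glo, taken after 15 min at room temperature, served as the proxy for metabolically active cells following 48 h treatment. Both potency and efficacy were taken from curves fitted to the titration data.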
# [17] = qHTS of pediatric cancer cell lines to identify multiple opportunities for drug repurposing: Primary screen for U-2 OS cells (AID 1347096); further: nearly all actives have a fitted effect of over 50% in size
# Summary of the method: (§2)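 Cells (500-1,000/well) rested 5 h, then received compounds for 48 h; metabolically active cells were measured by CellTiter-Glo luminescence. Final concentrations spanned up to 46 µM (MIPE, 11-point) or 0.59 nM-46 µM (NPC, 8-point) in primary screens, 11-point in follow-ups.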
# [18] = qHTS of pediatric cancer cell lines to identify multiple opportunities for drug repurposing: Primary screen for SK-N-SH cells (AID 1347098)
# Summary of the method: as §2
# [19] = qHTS of pediatric cancer cell lines to identify multiple opportunities for drug repurposing: Primary screen for Rh41 cells (AID 1347108);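 further: luminescence drop marks cytotoxic hits; nearly all actives have a fitted effect of over 70% in size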
# Summary of the method: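 Cells seeded at 500-1,000 cells/well in growth media, rested 5 hours at 37 degrees C, 5% CO2, then dosed; MIPE compounds at 11-point (from 0.78 nM) and NPC at 8-point (from 0.59 nM) final concentrations. Viability by CellTiter-Glo luminescence after 48 hours.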
# [20] = biological target: Cytochrome P450 2D6 (Homo sapiens) (UniProt P10635); assay: Cytochrome P450 family 2 subfamily D member 6 (CYP2D6) small molecule antagonists: luciferase biochemical (cell-free) qHTS assay (AID 1645840; active means well fitted curve in the direction sought with a large enough effect in the repeat runs; inconclusive means weak or mixed curves; inactive means no such curve, though single readings can be large; an effect the other way counts as inactive or inconclusive)
# Summary of the method: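 P450-Glo luminescent screen: recombinant CYP2D6 enzyme–proluciferin substrate mix preincubated with compound 10 min at room temperature, then NADPH regeneration added for 1 h at room temperature. Detection reagent added for 20 min; luciferin light read as relative luminescence units.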
# Tags describe the fitted curve by direction and shape.
# Sequence of UniProt P07203 (P07203 whole entry, looked up): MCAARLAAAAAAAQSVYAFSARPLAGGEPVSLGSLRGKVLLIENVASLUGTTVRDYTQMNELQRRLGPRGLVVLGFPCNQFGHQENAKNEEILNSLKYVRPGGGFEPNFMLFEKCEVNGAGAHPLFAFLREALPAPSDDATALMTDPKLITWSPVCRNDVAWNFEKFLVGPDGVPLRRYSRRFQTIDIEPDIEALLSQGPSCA
# Sequence of UniProt P10635 (P10635 whole entry, looked up): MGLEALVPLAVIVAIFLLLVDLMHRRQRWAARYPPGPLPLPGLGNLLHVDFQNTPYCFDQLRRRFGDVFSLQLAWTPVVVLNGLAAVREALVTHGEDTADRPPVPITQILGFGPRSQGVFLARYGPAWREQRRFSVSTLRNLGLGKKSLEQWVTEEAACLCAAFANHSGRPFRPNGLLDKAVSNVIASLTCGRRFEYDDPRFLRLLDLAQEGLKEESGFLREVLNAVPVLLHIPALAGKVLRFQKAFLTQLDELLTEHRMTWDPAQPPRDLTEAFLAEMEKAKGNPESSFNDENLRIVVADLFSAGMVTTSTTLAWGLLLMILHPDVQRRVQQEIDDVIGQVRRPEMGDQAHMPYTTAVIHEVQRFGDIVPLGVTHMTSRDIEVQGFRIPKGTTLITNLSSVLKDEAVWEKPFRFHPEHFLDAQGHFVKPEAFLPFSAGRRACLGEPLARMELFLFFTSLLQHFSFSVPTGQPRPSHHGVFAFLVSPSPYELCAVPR
smiles,measurement,setting,value
C=C1[C@H](CO)[C@@H](O)C[C@@H]1n1cnc2c(=O)[nH]c(N)nc21,Potency,[1],inactive
same,Potency,[2],"inconclusive: 16.3 µM [inhibitor, single point] and inconclusive: 16.6 µM [inhibitor, partial curve]"
same,Potency,[3],"inconclusive: 16.3 µM [inhibitor, partial curve] and inactive and inconclusive: 18.6 µM [inhibitor, partial curve]"
same,Potency,[4],inactive
same,Potency,[5],inactive
same,Potency,[6],inactive
CC1CCC2C(C(=O)O)=CC3C(O)C(C)(C)CC123 (centres undefined),Potency,[7],"inconclusive: 7.52 µM [inhibitor, partial curve, poor fit]"
same,Potency,[8],"inconclusive: 37.7 µM [activator, partial curve, poor fit]"
same,Potency,[5],inactive
same,Potency,[6],inactive
same,Potency,[9],inactive
same,Potency,[10],inactive
Cc1cc(C)cc(NC(=O)Cc2ccc(OC(C)(C)C(=O)O)cc2)c1,Potency,[11],inactive
same,Potency,[2],inactive
same,Potency,[5],inactive
same,Potency,[12],inactive
same,Potency,[13],inactive
CC1(C)CCCC2(C)C(CO)C3CCC2C31 (centres undefined),Potency,[14],inactive
same,Potency,[5],inactive
same,Potency,[12],inactive
same,Potency,[15],"inconclusive: 0.1 µM [rising, full curve, poor fit]"
C=C(CCO)C(=O)OCC1OCC(OC(=O)C(=C)CCO[C@@H]2O[C@H](COC(=O)C(=C)CCO[C@@H]3O[C@H](CO)[C@@H](O)[C@H](O)[C@H]3O)[C@@H](O)[C@H](O)[C@H]2O)C(O)C1O (some centres undefined),Potency,[3],inactive
same,Potency,[5],"inconclusive: 14.1 µM [cytotoxic, single point]"
same,Potency,[12],inactive
same,Potency,[15],"inconclusive: 14.1 µM [rising, single point]"
OCCc1ccccc1,Potency,[16],inactive
same,Potency,[17],inactive
same,Potency,[18],"inconclusive: 9.7 µM [cytotoxic, partial curve, poor fit]"
same,Potency,[19],inactive
same,Potency,[20],"inconclusive: 24.5 µM [inhibitor, single point]"
same,Potency,[2],inactive
same,Potency,[3],inactive
same,Potency,[5],inactive
same,Potency,[9],"inconclusive: 39.8 µM [cytotoxic, single point]"
